Source: PubChem BioAssay AID463173 (ICCB-Longwood Screening Facility, Harvard Medical School, 2010)
Out of some 52,000 compounds screened, about 1,700 (3.3%) were called active. No stated cut-off is given here; in the data, active means survival mostly below about 52% (no sharp cut-off); inactive means mostly above about 56%. The list shows a part of the results.

The compounds below were run on Wild type (assay: S. aureus survival, RN4220 and DeltatarO strains – OD600, teichoic acid synthesis inhibitors, primary screen (AID 463173)). Conditions: S. aureus RN4220 wild type/DeltatarO growth, OD600, 18 h, stronger effect = lower value, screened at 18.75 µg/mL (by protocol).

SMILES	survival
Cc1ccc(-c2nn(CC(=O)NC3CCCC3)c3c2cnc2ccccc23)cc1	inactive: 128%
Cc1ccc(C)c(NC(=O)CN2C(=O)c3cccnc3Oc3ccc(C)cc32)c1	inactive: 74%
Cc1cccc(-c2nnc(SCC(=O)OC(C)C)n2C)c1	inactive: 106%
Cc1cccc(-c2nc(CSCC(=O)NCCc3ccc(Cl)cc3)c(C)o2)c1	active: -3%
Cc1ccc(CNC(=O)c2ccc(-c3nc(CS(=O)c4ccccc4)c(C)o3)cc2)cc1 (stereo unspecified)	inactive: 79%
CC1CCCN(C(=O)C2CCN(CC3CC=CCC3)CC2)C1 (stereo unspecified)	inactive: 106%
COc1ccc2c(c1)N(C)/C(=C1/SC(=O)N(c3ccccc3)C1=O)S2	inactive: 85%
COCCn1ccc2c(OCC(=O)Nc3ccccc3F)cccc2c1=O	inactive: 19%
COc1ccccc1NC(=O)C1CCN(C(=O)c2ccccc2)CC1	inactive: 94%
CCOC(=O)N1CCc2c(sc3c2c(=O)n(CCc2ccccc2)c(=O)n3CC(=O)Nc2cccc(C)c2)C1	inactive: 82%
O=C(c1cc(-c2ccccc2)on1)N1CCCCC1	inactive: 113%
O=C(Nc1cnc(N2CCC(N3CCCCC3)CC2)c(C(=O)O)c1)c1ccc(Br)cc1	inactive: 99%
Cc1ccc(CSc2nc3ccc(NC(=O)COc4ccc(F)cc4)cc3s2)cc1	inactive: 88%
CCn1nc(C)c(CCN(C)C(=O)Nc2cc(C)cc(C)c2)c1C	inactive: 51%
CCc1ccc(CNC(=O)Cn2c(-c3cccs3)cc3cc(F)ccc32)cc1	inactive: 136%
COc1ccccc1NC(=O)c1c(NC(=O)Cc2ccccc2)sc2c1CCC(C(C)(C)C)C2 (stereo unspecified)	inactive: 102%
COc1ccc(N2CCN(C(C)C(=O)N3CCCC3)CC2)cc1 (stereo unspecified)	inactive: 95%
COc1ccc(-n2c(=O)c3c(c4cc(OC)ccc4n3C)n(Cc3ccc(F)cc3Cl)c2=O)cc1	inactive: 80%
Nc1nonc1C(=O)NCCNCc1ccc(Cl)c(Cl)c1	inactive: 71%
Cc1cc(C)nc(-n2nc(C)c3c2NC(=O)CC3c2cc(F)ccc2F)n1 (stereo unspecified)	inactive: 83%
COc1ccccc1NC(=O)Cn1c(=O)n(Cc2ccccc2)c(=O)c2c3c(sc21)CN(C(C)=O)CC3	inactive: 84%
Cc1oc(C)c(C(N)=O)c1C(N)=O	inactive: 97%
CCn1ccc2c(OCC(=O)NCc3ccc(C)cc3)cccc2c1=O	inactive: 71%

SMILES	survival
Cn1c(=O)cc(SCC(=O)N2CCN(c3ccccc3F)CC2)c2cc(Cl)ccc21	inactive: 62%
CC(C)Sc1ncc(Cl)c(C(=O)Nc2ccc(S(=O)(=O)Nc3ncccn3)cc2)n1	inactive: 90%
CCNC(=O)C1CCCN1C(=O)OCC(C)C (stereo unspecified)	inactive: 104%
Cc1ccc(NC(=O)c2cc3c([nH]c2=O)CC(C)(C)CC3=O)c(C)c1	inactive: 67%
COc1ccc(CNC(=O)CSc2n[nH]c(-c3ccc(OC)cc3)n2)cc1	active: -6%
COc1cc(Cn2c(=O)sc3ccccc32)ccc1OCCC(C)C	active: -4%
CC(C)c1ccc2c(c1)-c1ccccc1S(=O)(=O)N2CC(=O)N1CCCCC1	inactive: 85%
Cc1cc(Cl)ccc1OCC(=O)Nc1c(C(=O)c2ccccc2)oc2ccccc12	inactive: 67%
O=C(CSc1ncc(-c2ccccc2)[nH]1)Nc1cccc(C(F)(F)F)c1	inactive: 25%
Cc1ccccc1-c1nc(CS(=O)(=O)CC(=O)Nc2cc(Cl)cc(Cl)c2)c(C)o1	inactive: 77%
Cc1ccccc1CCNC(=O)C1CCN(c2nc3ccccc3nc2C(F)(F)F)CC1	inactive: 68%
COc1cc(CN(C(=O)c2cccc(C)c2)c2ccccn2)cc(OC)c1OC	inactive: 82%
Cc1ccc(-n2c(SCC(=O)NCc3ccccc3)nc3c([nH]c4ccccc43)c2=O)cc1	inactive: 69%
CCOc1ccc(C(=O)NCCn2cc(SCC(=O)Nc3ccccc3)c3ccccc32)cc1	inactive: 98%
COC(=O)c1cc(NC(=O)c2sc3ncn(Cc4cccc(F)c4)c(=O)c3c2C)cc(C(=O)OC)c1	inactive: 73%
COc1ccccc1NC(=O)CCS(=O)(=O)c1cc2c3c(c1)CCN3C(=O)CC2	inactive: 73%
O=C(NCc1ccccc1Cl)c1cc(=O)[nH]c2ccc(S(=O)(=O)N3CCCCC3)cc12	inactive: 83%
CCC1CCCCN1C(=O)c1nn(-c2ccc(OC)cc2)c(=O)c2c1c1ccccc1n2C (stereo unspecified)	inactive: 128%
O=C(O)CN1CCCC1=O	inactive: 104%
Cc1ccc(C)c(N2CCN(C(=O)CCn3c(=O)c4cccn4c4cccnc43)CC2)c1	inactive: 68%
COc1ccccc1Nc1nc(-c2ccccc2Cl)c2cc(Br)ccc2n1	inactive: 119%
CC1=C(C(=O)Nc2ccc(Cl)cc2)C(C(C)C)n2nc(SCc3ccc(Cl)cc3)nc2N1 (stereo unspecified)	inactive: 80%
COC(=O)c1ccc[nH]c1=S	inactive: 101%

SMILES	survival
CCN(Cc1ccccc1)C(=O)CN1C(=O)COc2ccc(S(=O)(=O)N(CC)CC)cc21	inactive: 86%
O=C(NCC1CCN(Cc2cccc(Cl)c2)CC1)c1cc2ccc3cccnc3c2[nH]1	inactive: 63%
O=C(Cn1nc(C(F)(F)F)c2c1CCC2)Nc1ccc(Cl)cc1	inactive: 72%
COc1ccc(OC)c(CCNC(=O)C2=C(C)C(=O)OC23CCC(C)CC3)c1 (stereo unspecified)	inactive: 88%
Cc1cc(C)c2c(CC(=O)Nc3ccc(S(=O)(=O)Nc4ncccn4)cc3)coc2c1	inactive: 81%
CCOc1nc(NC(C)C)nc(NC(C)C)n1	inactive: 99%
CCc1cccc(C)c1NC(=O)Cn1ccn(Cc2ccc(Cl)cc2)c(=O)c1=O	inactive: 82%
COc1ccc(NC(=O)CN(C)S(=O)(=O)c2cnc[nH]2)cc1Cl	inactive: 75%
Cc1ccc(-c2[nH]c(-c3ccccc3)nc2SCC(=O)NCC2CCCO2)cc1 (stereo unspecified)	inactive: 81%
CC1CN(C(=O)C(C)Sc2nc(-c3ccccc3)cc(C(F)(F)F)n2)CC(C)O1 (stereo unspecified)	inactive: 101%
COc1ccc(-c2noc(COc3ccc(Br)cc3C)n2)cc1OC	active: 11%
c1ccc(-c2nnc(CN3CCN(c4ccccc4)CC3)o2)cc1	inactive: 83%
O=C(NCC1CCCO1)c1ccc(NC(=O)c2ncn[nH]2)cc1 (stereo unspecified)	inactive: 98%
Cc1ccc2c(c1C)NC(=O)CC2c1ccc(Cl)cc1Cl (stereo unspecified)	active: 1%
Cn1c(C(O)c2ccccc2)n[nH]c1=S (stereo unspecified)	inactive: 118%
CCc1ccc(OCC(=O)Nc2ccc(-c3nc4ncccc4o3)cc2)cc1	inactive: 81%
O=C(CN1CCC(n2nnc3cc(F)ccc32)CC1)N1CCCc2ccccc21	inactive: 103%
O=C(O)c1ccc(NC(=O)c2cn(-c3ccccc3)nc2-c2ccc(Br)cc2)cc1	inactive: 32%
O=C(CC1N=C2c3ccccc3N=C(SCc3cccc(F)c3)N2C1=O)NCc1ccc2c(c1)OCO2 (stereo unspecified)	inactive: 113%
Cc1ccc(OCC(=O)Nc2cccc(C(=O)OCc3cc(=O)n4nc(C)sc4n3)c2)cc1	inactive: 74%
Cc1ccc2c(c1)nnn2C1CCN(CC(=O)N2c3ccccc3CC2C)CC1 (stereo unspecified)	inactive: 109%
COc1cccc(CNC(=O)C(=O)Nc2ccc3nc4n(c(=O)c3c2)CCCCC4)c1	inactive: 93%
Cc1ccc2nc(Cl)c3cc(C(=O)NC4CCC(C)CC4)sc3c2c1 (stereo unspecified)	inactive: 72%

SMILES	survival
CCN(CC)C(=O)CSc1nnc(-c2ccco2)n1CCCOC	inactive: 108%
Cc1ccc(/C=N/NC(=O)C2=NNC(=O)C2C)o1 (stereo unspecified)	inactive: 107%
Cc1ccc(N2CCN(C(=O)c3cc(S(=O)(=O)N4CCCCC4)c[nH]3)CC2)c(C)c1	inactive: 73%
Cc1ccc(-c2cc(C(=O)Oc3ccccc3Cl)no2)cc1C	active: -6%
Cc1cccc(OCC(=O)N(Cc2ccccc2)c2ccccn2)c1	inactive: 87%
CS(=O)(=O)N1CCCc2cc(C(=O)Nc3cccc(C(F)(F)F)c3)ccc21	inactive: 70%
COc1ccc(C2C(=O)N(C3CCCCCC3)CC(=O)N2CCC2=CCCCC2)cc1 (stereo unspecified)	inactive: 53%
COc1ccc(CCNC(=O)c2ccc3c(Cl)c4c(nc3c2)CCCC4)c(OC)c1	inactive: 97%
COC(=O)c1cnc(N2CCN(c3ccc(F)cc3)CC2)c2ccccc12	inactive: 89%
CC1CCC(NC(=O)c2ccc(CS(=O)(=O)c3c(Cl)cccc3Cl)o2)CC1 (stereo unspecified)	inactive: 71%
CC(=O)c1ccc(N2CCN(c3ncnc4onc(C)c34)CC2)cc1	inactive: 66%
CCN(CC)C(=O)Cn1cc(/C=C(\C#N)C(=O)N2CCN(c3ccccc3)CC2)c2ccccc21	inactive: 102%
O=C(OC(C(=O)NCc1cccs1)c1ccccn1)c1cccs1 (stereo unspecified)	inactive: 110%
O=C(NCCN1CCCCC1)c1ccc(Cn2c(SCc3cccc(F)c3)nc3cccnc32)cc1	inactive: 89%
COC(=O)c1ccc(CSc2nc3c(c(=O)[nH]2)CCC3)cc1	inactive: 85%
COc1ccc(OCC(=O)Nc2ccccc2C(=O)OCc2cc(=O)n3nc(C)sc3n2)cc1	inactive: 66%
COc1cc(-c2nc(-c3cccc(Cl)c3)c(-c3ccccc3)[nH]2)cc(OC)c1OC	inactive: 143%
Cc1ccc(NC(=O)Cn2c(=O)n(Cc3ccc4c(c3)OCO4)c(=O)c3ccccc32)c(C)c1	inactive: 97%
CCc1ccccc1NC(=O)Cn1c(=O)n(Cc2ccco2)c(=O)c2sc3ccccc3c21	inactive: 89%
Cc1ccc2nc(N3CCN(c4cccc(C)c4C)CC3)c3nncn3c2c1	inactive: 26%
Cc1ccc(C)c(N2CCN(S(=O)(=O)c3cnc(N)nc3)CC2)c1	inactive: 82%
CC(C)CCn1c(=O)c2sccc2n2c(CCCC(=O)NC3CCC(C)CC3)nnc12 (stereo unspecified)	inactive: 92%
